# From publication PMC4336329 (PLoS ONE, 2015)
# The whole screen tested about 310,000 compounds, of which about 2,200 (0.71%) showed an effect of 50% or more. The effect is printed as a negative number. The list shows a part of the results.
# Target: human ether-à-go-go-related gene (hERG) potassium channel (human, UniProt Q12809)
# Assay: primary screen, population patch clamp on CHO cells stably expressing hERG
# human ether-à-go-go-related gene (hERG) potassium channel, sequence (Q12809 whole entry, looked up): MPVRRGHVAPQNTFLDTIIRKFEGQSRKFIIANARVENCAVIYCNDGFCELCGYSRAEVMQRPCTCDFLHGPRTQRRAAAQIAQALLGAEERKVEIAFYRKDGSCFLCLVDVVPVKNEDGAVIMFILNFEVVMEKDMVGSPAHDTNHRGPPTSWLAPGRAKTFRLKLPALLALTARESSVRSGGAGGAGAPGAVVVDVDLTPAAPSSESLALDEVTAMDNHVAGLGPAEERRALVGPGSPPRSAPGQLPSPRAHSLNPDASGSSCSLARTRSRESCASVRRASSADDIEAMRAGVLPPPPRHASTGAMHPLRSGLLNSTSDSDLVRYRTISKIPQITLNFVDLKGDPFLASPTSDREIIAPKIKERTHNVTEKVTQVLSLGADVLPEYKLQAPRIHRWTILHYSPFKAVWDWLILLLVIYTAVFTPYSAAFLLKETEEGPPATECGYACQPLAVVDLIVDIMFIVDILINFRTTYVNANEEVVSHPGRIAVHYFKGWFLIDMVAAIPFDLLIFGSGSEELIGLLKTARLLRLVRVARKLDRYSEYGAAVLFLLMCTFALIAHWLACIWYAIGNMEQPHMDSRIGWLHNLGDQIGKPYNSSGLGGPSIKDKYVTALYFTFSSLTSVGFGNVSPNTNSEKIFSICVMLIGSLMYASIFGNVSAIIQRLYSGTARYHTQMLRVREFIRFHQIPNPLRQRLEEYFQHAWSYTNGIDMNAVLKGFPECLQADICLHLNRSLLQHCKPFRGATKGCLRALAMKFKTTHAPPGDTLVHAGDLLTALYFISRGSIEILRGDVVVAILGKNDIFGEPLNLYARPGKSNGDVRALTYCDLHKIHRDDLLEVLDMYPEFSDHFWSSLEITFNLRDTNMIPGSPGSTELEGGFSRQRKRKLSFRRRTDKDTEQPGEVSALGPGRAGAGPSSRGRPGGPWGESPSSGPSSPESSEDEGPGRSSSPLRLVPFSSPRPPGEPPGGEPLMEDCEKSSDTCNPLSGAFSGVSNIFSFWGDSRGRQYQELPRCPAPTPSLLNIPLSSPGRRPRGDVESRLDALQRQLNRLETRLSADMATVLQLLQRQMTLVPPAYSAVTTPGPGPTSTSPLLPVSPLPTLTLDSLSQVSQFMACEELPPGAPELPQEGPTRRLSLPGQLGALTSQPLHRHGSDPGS
row,SMILES,"hERG current change (%, negative = inhibition) at 1uM [%]"
1,CC(C)N1CCC2(CC1)Oc1ccc(Br)cc1C1CC(c3cccnc3)=NN12 (stereo not shown),-2.29
2,CCCCn1c(SCC(=O)NCC2CCCO2)nc2ccc(N3CCOCC3)cc2c1=O (stereo not shown),-10.4
3,OC1(c2ccc(F)cc2)CN(c2ccccc2)C2=[N+]1CCS2.[Br-] (stereo not shown),12.9
4,CCOC(=O)c1cccc(NC(=O)CN(c2ccc(C)cc2)S(=O)(=O)c2c(C)n[nH]c2C)c1,2.14
5,O=C(CCS(=O)(=O)Cc1ccc(Cl)cc1)NCCc1ccccc1,2.18
6,Cc1ccc(NC(=O)CSCc2cc(=O)n3cc(C)sc3n2)cc1,14.2
7,O=C(CSc1nnc(Cc2ccccc2)o1)N1CCOCC1,11.7
8,COc1ccccc1-c1nc(-c2ccccn2)no1,17.9
9,Cc1ccc(Sc2cc(C(=O)NCCCN(C)C)c3ccccc3n2)cc1,2.23
10,O=C(CSc1nnc(CNc2ccc(Cl)cc2)o1)Nc1nc2ccccc2s1,6.79
11,CCOC(=O)C/C(C)=N/NC(=O)COc1ccccc1C,3.23
12,COc1ccccc1NC(=O)NCCN1CCCCC1,5.82
13,Cc1ccc(-n2c(N)c(C(N)=O)sc2=S)cc1,6.78
14,Cl.NC(=O)c1ccc(OCCC(O)N2CC=C(c3ccc(F)cc3)CC2)cc1 (stereo not shown),-53
15,O=C(N/N=C/c1ccco1)c1cc(Br)ccc1OCc1ccccc1,10.1
16,CCc1ccc(N=c2c([N+](=O)[O-])nn(-c3ccccc3)n2O)cc1,-5.97
17,CCn1c(C)nnc1SCC(=O)Nc1ccc(Cl)cc1,10.8
18,Cc1cc(C2=CC(=O)C[C@H](c3ccc4c(c3)OCO4)C2)ccc1F,9.21
19,COC1CCN(Cc2c(C(=O)N3CCN(C4CCCCC4)CC3)nc3ccccn23)CC1,12.3
20,O=C(Nc1cccc(S(=O)(=O)N2CCCCCC2)c1)c1ccc(=O)[nH]c1,2.88
21,Cc1ccc(S(=O)(=O)NC(=O)c2ccc(-c3ccc(C)c4ccccc34)o2)cc1,2.14
22,COc1cc(C(=S)N2CCOCC2)cc(OC)c1OC(=O)c1ccc(C)cc1,8.36

row,SMILES,"hERG current change (%, negative = inhibition) at 1uM [%]"
1,COc1ccc(OC)c(NC(=O)Nc2ccc(O)c3ccccc23)c1,14
2,C/C(=N/Nc1nc(-c2ccccc2F)nc2ccccc12)c1ccccc1O,3.53
3,CC(=O)c1cccc(-n2nnnc2SCC(=O)N2CCCC2)c1,7.78
4,O=C(Nc1nc(-c2ccccc2)cs1)c1ccc(=O)[nH]c1,0.955
5,CC(=O)Nc1ccc(S(=O)(=O)NCC(=O)OCC(=O)NC23CC4CC(CC(C4)C2)C3)cc1,8.5
6,COC(=O)CSc1ccc(-c2nc3ccc(C)cc3[nH]2)cn1,11
7,Cn1c(CSCc2ccc(F)cc2)nnc1SCC(=O)N1CCN(c2ccccc2)CC1,-21.3
8,O=C(Cn1cnc2cc([N+](=O)[O-])ccc2c1=O)Nc1ccc(Br)cc1,21.6
9,Cc1cc(Nc2ncc(Cl)cc2Cl)n[nH]1,15.4
10,O=C(COC(=O)c1ccco1)Nc1nc2ccccc2s1,7.2
11,Cc1nn(-c2cc(Cl)ccc2Cl)c(C)c1C(=O)O,15.3
12,CC1CCN(CC(=O)Nc2nn(-c3ccccc3)nc2C(N)=O)CC1,11.6
13,CCN(Cc1nc(-c2cccc(Cl)c2)no1)CC1CCCO1 (stereo not shown),7.87
14,CC(=O)Oc1ccc(Cl)cc1/C=C/c1ccc2ccccc2n1,9.48
15,COc1cccc(/C=N/Nc2nc(Nc3ccccc3)nc(-n3nc(C)cc3C)n2)c1O,12.3
16,CC(C)(C)c1nnc2sc(SC/C(O)=C(\C#N)c3nc4ccccc4[nH]3)nn2c1=O,9.17
17,CC(=O)c1cccc(NC(=O)CCc2nnc3ccc(N4CCOCC4)nn23)c1,15.3
18,O=C(c1cccnc1)N1CCN(c2ccc(Cl)cc2)CC1,-4.43
19,Cc1c(C=C2C(=O)N(C)C(=S)N(C)C2=O)c2ccccc2n1CC(=O)NCC1CCCO1 (stereo not shown),7.21
20,Cc1ccc(-c2noc(CSc3ccccc3)n2)cc1,12.3
21,O=c1ccc(-c2ccc(S(=O)(=O)Nc3ccc(F)cc3)o2)n[nH]1,2.03
22,CCOc1cc(/C=N/NC(=O)c2ccncc2)ccc1OS(C)(=O)=O,11

row,SMILES,"hERG current change (%, negative = inhibition) at 1uM [%]"
1,Cc1ccc(C2=Nc3ccc(Br)cc3C(c3ccncc3)=NN2)cc1,6.1
2,O=C(Nc1ccc(Cl)cc1C(F)(F)F)C(Sc1cccc[n+]1[O-])c1ccccc1 (stereo not shown),-34.6
3,Cl.c1coc(CN(Cc2ccco2)c2ncnc3c2oc2ccccc23)c1,-6.39
4,CCOC(=O)c1c(NC(=O)CSc2nc3c(c(=O)n(C)c(=O)n3C)n2C(C)C)sc(C)c1C,10.5
5,O=C(Cn1c(=O)oc2ccccc21)Nc1ccc(Br)cc1,12.5
6,COc1cc2c(=O)n(Cc3ccco3)c(=O)n(CC(=O)c3cccc(Br)c3)c2cc1OC,8.33
7,CCN(c1ccccc1)S(=O)(=O)c1cc(C(=O)Nc2ccc(F)c(F)c2)ccc1F,8.23
8,CCOC(=O)/C(C#N)=C/c1ccc(-c2ccsc2C(=O)OC)o1,1.57
9,COc1ccc(C(=O)OCc2cc3cccc(C)c3[nH]c2=O)cc1,11.5
10,Cc1ccc(/C=C2\SC(N3CCN(C(c4ccccc4)c4ccccc4)CC3)=NC2=O)o1,15.2
11,O=C(Nc1ccc(Cl)c(Cl)c1)OCCNC(=O)c1cccc(Cl)c1,11.2
12,COc1ccc(-c2nnc(SCC(=O)NC3CC3)o2)cc1,12.9
13,Cc1ccsc1C(=O)OCC(=O)NCc1ccc2c(c1)OCO2,16.9
14,Cc1ccc(S(=O)(=O)Nc2ccc(Cl)cn2)cc1,12.7
15,CCOC(=O)C1(Cc2cccc(Cl)c2)CCCN(C(=O)CCC(=O)N(C)C)C1 (stereo not shown),9.15
16,CCCCCC(C)NC(=O)c1cc(S(=O)(=O)N2CCCCC2)ccc1N1CCOCC1 (stereo not shown),-4.21
17,COc1cccc(NC(=O)C(=O)NCC(c2ccco2)N2CCc3ccccc3C2)c1 (stereo not shown),8.65
18,CCc1ccc(C2(C)SC(NC(C)=O)=NN2C(C)=O)cc1 (stereo not shown),6.14
19,Cc1cccc(OCc2nnc(SCC(=O)Nc3ccc(C)c(Cl)c3)o2)c1,10.5
20,COc1ccc(N(CC(=O)Nc2ccc3c(c2)OCO3)S(C)(=O)=O)c(OC)c1,14.5
21,Cc1onc(-c2c(Cl)cccc2Cl)c1C(=O)N=S(C)(=O)c1ccccc1 (stereo not shown),15.5
22,CCN(C(=O)c1cc2c(=O)n3ccccc3nc2s1)C1CCCCC1,-2.02

row,SMILES,"hERG current change (%, negative = inhibition) at 1uM [%]"
1,COc1nccc(NCc2ccccc2)c1C#N,5.83
2,COc1ccccc1NC(=O)C1C2CCCCC21 (stereo not shown),-0.822
3,Cc1cccc(NC(=O)CCNC(=O)c2ccc(Br)cc2)c1,13.8
4,Nc1nc(-c2ccc3c(c2)NC(=O)CO3)cs1,17
5,Cl.O=C(c1cc(-c2cccs2)nc2ccccc12)N1CCN(c2ccccc2)CC1,16.5
6,CCN(CC)C(=O)N1CCN(Cc2ccc3c(c2)OCO3)CC1,4.9
7,CN(C)c1ccc(/C=C/C(=O)c2ccc(O)cc2)cc1[N+](=O)[O-],8.92
8,O=C(c1ccc2c3c(cccc13)CC2)C1CCCN(Cc2ccncc2)C1 (stereo not shown),-2.25
9,O=C(C/C=N\OCc1ccc([N+](=O)[O-])cc1)Nc1ccc(Cl)cc1,-0.523
10,CCOC(=O)CC1C(C(=O)OCC)ON2OC(C(=O)OC)C(C(=O)OCC)C12 (stereo not shown),8.28
11,Cc1ccc(S(=O)(=O)N(C)c2ccc(OC(=O)CN3C(=O)NC4(CCCC4)C3=O)cc2)cc1,-1.35
12,COc1ccc(OCC(=O)NNc2nc3ccccc3s2)cc1,11.9
13,O=C(CC(=O)N/N=C/c1c(F)cccc1Cl)NCCc1ccccc1,11.1
14,Cn1c2ccccc2c(=O)c2c(=O)n(-c3ccccc3)c(-c3ccc(C(C)(C)C)cc3)nc21,14
15,Cc1ccc(C2=NOC(C)(c3nnc(-c4cccc(Cl)c4)o3)C2)cc1 (stereo not shown),6.18
16,O=C(CCCC(=O)N1CCCC1)N1CCCC1,11.8
17,Cc1cccc(N(CC(=O)N2CCN(C)CC2)S(=O)(=O)c2ccccc2)c1,3.68
18,CCCCN(CC)CCNC(=O)c1cc2c(=O)[nH]c3ccccc3c2s1,4.02
19,O=[N+]([O-])c1cc(-c2cnc3ccccc3n2)ccc1Oc1ccc(F)cc1,13.2
20,Nc1nc(NCc2ccco2)nc(Nc2ccc(F)cc2)c1[N+](=O)[O-],13.9
21,COCCNS(=O)(=O)c1cc(OC)ccc1OC,12.7
22,COc1ccccc1C(=O)NNC(=O)c1ccc(Cl)cc1,4.71
